Results published in ChEMBL document CHEMBL4888484, “Replenishing the malaria drug discovery pipeline: Screening and hit evaluation of the MMV Hit Generation Library 1 (HGL1) against asexual blood stage Plasmodium falciparum ,using a nano luciferase reporter read-out” (2022).
Among all 150,000 compounds or so, about 540 (0.36%) showed an effect of 50% or more. This is one part of the list.

What follows are compounds tested on Plasmodium falciparum (assay: Primary screen in NF54 nanoGlo assay, in single point, at 2uM, 72h; a lower Z score goes with more inhibition). Conditions: timepoint 72 hour.
Format: functional, Erythrocyte
`Cc1nccc(CNC(=O)CC2(C)CCCCC2)n1` was tested, and the “% Inhibition” value was -10% and the Z score was 1.9. For `Cc1ccc(CNC(=O)CCC(=O)N2C[C@@H]3CCCN3c3ccccc32)o1`, the “% Inhibition” value was -6% and the Z score was 0.69. In the case of `Cn1cccc1-c1noc([C@H]2CCN(C(=O)c3ccc4ncccc4c3)C2)n1`, the “% Inhibition” value is reported as -21% and the Z score is reported as 2.71. `Cc1ccsc1C(=O)NC[C@H]1Cc2ccccc2O1` was tested, and the “% Inhibition” value was -9% and the Z score was 1.35. `Cc1c(F)cccc1C(=O)N1CCN(CCN2CCCC2)C[C@H](O)C1` was tested, and the “% Inhibition” value was -7% and the Z score was 1.25. With `COCCn1cc(NC(=O)N(C)C2CCCC(C)C2)cn1` (stereo not given) the “% Inhibition” value was -11% and the Z score was 1.05. `C[C@@H](Cn1ccnc1)NC(=O)c1ccc2c(c1)CCCC2` was tested, and the “% Inhibition” value was 3% and the Z score was -0.59. In the case of `COCCN(C)C(=O)c1nn(Cc2ccc(F)cc2)c2c1COCC2`, the “% Inhibition” value is reported as -10% and the Z score is reported as 1.21. With `O=C(N[C@H](c1ccccc1)c1nc2ccccc2[nH]1)c1[nH]nc2c1CCC2` the “% Inhibition” value was -9% and the Z score was 1.16. `Cc1sc(-c2nc(-c3ccc(F)cc3)no2)cc1S(=O)(=O)N1CCOCC1` was tested, and the “% Inhibition” value was -7% and the Z score was 0.83. `O=C(Cn1nccn1)NCC[C@H]1CCOC1` was tested, and the “% Inhibition” value was -5% and the Z score was 0.5. With `CN(C)C(=O)C1C[C@@H]2OCC[C@@H]2N1C(=O)CCS(=O)(=O)C1CCCC1` (stereo not given in full) the “% Inhibition” value was 3% and the Z score was -0.51. With `CC(C)CN(CC(C)C)c1nc(-c2cccnc2)nc2ccccc12` the “% Inhibition” value was -10% and the Z score was 1.29. `C[C@@]1(C(N)=O)CCCCN1Cc1csc(-c2ccccn2)n1` was tested, and the “% Inhibition” value was -9% and the Z score was 1.07. With `CC[C@H](NC(=O)N1CCC2(CC1)C(=O)N(C)C(=O)N2C)c1cc(C)ccn1` the “% Inhibition” value was -9% and the Z score was 1.47. `C=C[C@@H]1CCCCN1C(=O)C1CC(F)(F)C1` was tested, and the “% Inhibition” value was -11% and the Z score was 1.14. In the case of `Cc1ccc2nc(NC(=O)c3ccc(NC(=O)CCS(=O)(=O)c4cccs4)cc3)sc2c1`, the “% Inhibition” value is reported as -11% and the Z score is reported as 1.27. For `COCCC1(C(=O)N2CC3CCCC3C2)CCC1` (stereo not given), the “% Inhibition” value was -22% and the Z score was 1.98. With `CC(C)c1cnc(-c2ccc(NC(=O)N[C@H]3CCN(C)C3=O)cc2)o1` the “% Inhibition” value was 1% and the Z score was -0.13. With `COCCCCC(=O)N(C)c1cccc(C(C)C)c1` the “% Inhibition” value was -4% and the Z score was 0.67. For `COc1ccc2cc1OCCn1cc(nn1)CO[C@H]1CN(Cc3nc(C(F)(F)F)no3)C[C@@H]1NC2=O`, the “% Inhibition” value was -3% and the Z score was 0.55. In the case of `CC[C@H](C)CN(CC)C(=O)c1ccc(C(=O)O)cc1F`, the “% Inhibition” value is reported as -1% and the Z score is reported as 0.15. With `CCCn1ncc(CN(C)Cc2csc(C)n2)c1C` the “% Inhibition” value was -7% and the Z score was 1.3. In the case of `CC(C)c1ccnc(N2CCN(C(=O)c3ccnc(C4CC4)n3)CC2)n1`, the “% Inhibition” value is reported as 14% and the Z score is reported as -1.73. For `C[C@H]1CN(Cc2nnc(C3CC3)n2C)CCN1C(=O)OC(C)(C)C`, the “% Inhibition” value was -6% and the Z score was 0.97. For `CNC(=O)C1(C(=O)N2CCN(CC(C)(C)O)CC2)CCC1`, the “% Inhibition” value was -8% and the Z score was 1.07. In the case of `COc1ccc(C2=NN(C(=O)CN(CCN3CCOCC3)C(=O)C(C)C)[C@H](c3ccc4c(c3)OCO4)C2)cc1`, the “% Inhibition” value is reported as -8% and the Z score is reported as 1.13. In the case of `O=C(C1CCC(F)(F)CC1)N1CCCO1`, the “% Inhibition” value is reported as 4% and the Z score is reported as -0.57. For `O=C(NC1CCN(C(=O)c2cc3c(s2)CCCCCC3)CC1)c1ccncc1`, the “% Inhibition” value was -31% and the Z score was 3.65. For `CC(=O)N1CCCN(c2nnc(C)c3c(C)n(-c4ccc(C)cc4)nc23)CC1`, the “% Inhibition” value was -10% and the Z score was 1.49. For `CC1CN(C(C)C)CC1NS(=O)(=O)Cc1ccon1` (stereo not given), the “% Inhibition” value was -3% and the Z score was 0.45. `O=C(c1ccc2c(c1)OCCCO2)N1CCN(S(=O)(=O)c2cccc(F)c2)CC1` was tested, and the “% Inhibition” value was -10% and the Z score was 1.9. In the case of `O=C(Cc1csc(-c2ccc(Cl)s2)n1)NC[C@H]1CCCN1`, the “% Inhibition” value is reported as 3% and the Z score is reported as -0.46. In the case of `Cc1ccc(CCN2C(=O)CC[C@@H]3CN(c4ncccc4F)CC[C@@H]32)o1`, the “% Inhibition” value is reported as -6% and the Z score is reported as 0.71. `O=C(Nc1cc(C(F)(F)F)n[nH]1)c1cc2n(n1)CCCO2` was tested, and the “% Inhibition” value was -11% and the Z score was 1.52. For `Cc1ccc([C@H](CCO)NC(=O)c2cnc(C3CC3)[nH]c2=O)cc1`, the “% Inhibition” value was -7% and the Z score was 1.34. For `Cn1ncc2c(N3CCC(Cn4nc(C(C)(C)C)ccc4=O)CC3)ncnc21`, the “% Inhibition” value was 10% and the Z score was -1.3. `CC(C)C[C@H]1C(=O)N2C[C@@H](N(C)C)C[C@H]2CN1C(=O)COCc1ccccc1` was tested, and the “% Inhibition” value was -25% and the Z score was 2.19. `CC(C)c1nsc(NCCCOCC2CC2)n1` was tested, and the “% Inhibition” value was -12% and the Z score was 1.6. In the case of `FC(F)(F)c1ccc(-n2nnnc2COc2nnc(-c3ccccc3)o2)cc1`, the “% Inhibition” value is reported as 2% and the Z score is reported as -0.45. In the case of `CCCC[C@H](N)C(=O)N(C)CC1CCOCC1`, the “% Inhibition” value is reported as -11% and the Z score is reported as 1.2. `FC(F)CN1CCC(NCC=Cc2ccccc2)CC1` was tested, and the “% Inhibition” value was -7% and the Z score was 0.89. In the case of `Nc1nc(-c2ccc(F)c3cccnc23)c2nc[nH]c2n1`, the “% Inhibition” value is reported as -3% and the Z score is reported as 0.5. With `COc1cccc(NC(=O)CN2CN(c3ccccc3)C3(CCN(C(=O)Nc4ccccc4OC)CC3)C2=O)c1` the “% Inhibition” value was -10% and the Z score was 1.3. In the case of `CCC[C@H]1CN(c2noc(-c3ccccc3)n2)C[C@@H]1N(C)C`, the “% Inhibition” value is reported as -6% and the Z score is reported as 1.08. In the case of `Cn1ncc(Br)c1CC(=O)N1CCC(=O)N2CCC[C@@H]21`, the “% Inhibition” value is reported as -5% and the Z score is reported as 0.6. For `Cc1cc(N2CCC[C@H](CC(F)(F)F)C2)ccn1`, the “% Inhibition” value was 1% and the Z score was -0.14. With `Cc1nc2ccc(/C=C/C=C/c3ccccc3)cc2s1` the “% Inhibition” value was -2% and the Z score was 0.2. With `O=S(=O)(C[C@H]1CCCCO1)NCCc1c[nH]c2ccc(F)cc12` the “% Inhibition” value was -2% and the Z score was 0.38. With `CC(Cn1cc(Br)cn1)C(=O)NCC1CCCO1` (stereo not given) the “% Inhibition” value was 0% and the Z score was -0.04. With `CC(=O)N1CCN(C(=O)c2coc(CN(CCc3c[nH]c4ccccc34)Cc3ccc(F)cc3F)n2)CC1` the “% Inhibition” value was 3% and the Z score was -0.57. `Cn1ncc(NC(=O)Cc2ccc(Cl)cc2)c(N2CCOCC2)c1=O` was tested, and the “% Inhibition” value was -6% and the Z score was 1.21. `CC[C@H](NC(=O)N(C)CC1(N(C)C)CCC1)c1nccs1` was tested, and the “% Inhibition” value was 3% and the Z score was -0.36. In the case of `COc1nc2c(cc1CNC(=O)c1cc(C)c[nH]1)C(=O)N(C1CCCC1)C2`, the “% Inhibition” value is reported as 6% and the Z score is reported as -1.2. With `Cn1cc(CCNC(=O)C2=NN(c3ccccc3)[C@H](C(N)=O)C2)cn1` the “% Inhibition” value was 35% and the Z score was -4.71. `O=C(Cc1ccccc1)N1CC(OCc2cccc(F)c2)C1` was tested, and the “% Inhibition” value was -21% and the Z score was 1.91. `CN(CC(N)=O)C(=O)Cc1c(F)ccc(Br)c1F` was tested, and the “% Inhibition” value was -6% and the Z score was 1.02. For `CC(C)Cn1cncc1CN1CCc2[nH]nc(-c3ccc(F)c(F)c3)c2C1`, the “% Inhibition” value was -6% and the Z score was 0.8. For `Cc1cc(-n2cnnc2-c2ccc(O)cc2)n(C)n1`, the “% Inhibition” value was -9% and the Z score was 1.35. In the case of `CC1CCCC1NC(=O)c1n[nH]c(=O)c2ccccc12` (stereo not given), the “% Inhibition” value is reported as -18% and the Z score is reported as 1.6. With `COC[C@@H](O)CCNC(=O)Nc1cc(Br)c(F)cc1C` the “% Inhibition” value was -29% and the Z score was 3.37. For `Cc1cc(C(=O)N2CC(S(=O)(=O)N3CCc4ccccc43)C2)on1`, the “% Inhibition” value was -13% and the Z score was 1.2. With `O=C(NCCc1ccccc1F)c1cn(CCC2CCCCC2)nn1` the “% Inhibition” value was -13% and the Z score was 1.87. In the case of `O=C(Cn1cnc2c1CCCC2)N1CCOCC(F)(F)C1`, the “% Inhibition” value is reported as -6% and the Z score is reported as 0.79. In the case of `CS(=O)(=O)N(CC1CCC1)c1ccccc1`, the “% Inhibition” value is reported as -8% and the Z score is reported as 1.29. `CC(C)n1ccc(CCNC(=O)c2ccc(N3CC=CC3)cc2)n1` was tested, and the “% Inhibition” value was -3% and the Z score was 0.4. `CN(C(=O)CCc1cccc(F)c1)S(C)(=O)=O` was tested, and the “% Inhibition” value was 0% and the Z score was -0.02. In the case of `CN(C)C(=O)CN1CC[C@H](NC(=O)c2ccc(C(F)(F)F)cc2)[C@@H](O)C1`, the “% Inhibition” value is reported as -8% and the Z score is reported as 1.53. In the case of `COc1ccccc1Nc1nc(N)nc(COC(=O)[C@H]2CC(=O)N(c3ccc(C)cc3)C2)n1`, the “% Inhibition” value is reported as -2% and the Z score is reported as 0.22. With `CCCCNC(=O)[C@H](C)N1CC(S(C)(=O)=O)C1` the “% Inhibition” value was -13% and the Z score was 1.81. With `CC(NC(=O)C1CCCO1)c1ccccn1` (stereo not given) the “% Inhibition” value was -13% and the Z score was 1.94. For `CC1(C)Cc2cccc([C@H]3CC(=O)Nc4n[nH]cc43)c2O1`, the “% Inhibition” value was -18% and the Z score was 3.38. With `COc1cc(CN2CC(N3CCOCC3)C2)ccc1F` the “% Inhibition” value was 5% and the Z score was -0.68. For `CCN(C)C1(CNC(=O)c2cccc(-c3ncc(F)c(NC)n3)c2)CCCC1`, the “% Inhibition” value was 3% and the Z score was -0.53. `Cc1cc(S(=O)(=O)Nc2c(C(F)F)n[nH]c2C)c(C)s1` was tested, and the “% Inhibition” value was -1% and the Z score was 0.12. With `CCS(=O)(=O)c1ccc(O)c(NCc2ccoc2C)c1` the “% Inhibition” value was -5% and the Z score was 0.51. In the case of `CCOC(=O)C1CCN([C@H]2CS(=O)(=O)C[C@@H]2S(=O)(=O)c2cc(C)ccc2OC)CC1`, the “% Inhibition” value is reported as -9% and the Z score is reported as 1.21. For `Cc1cc(C)c(S(=O)(=O)N2CCC3(CC2)NCCN=C3NCc2ccccc2C)c(C)c1`, the “% Inhibition” value was -3% and the Z score was 0.35. `CCCNc1ncc(CN2CCc3nocc3C2)cn1` was tested, and the “% Inhibition” value was -13% and the Z score was 1.73. In the case of `Cc1nc(C(C)C)sc1C(=O)N1CC[C@@H]2OCc3cnnn3[C@@H]2C1`, the “% Inhibition” value is reported as -6% and the Z score is reported as 1.23. For `O=S(=O)(C1CC1)N1CC2CC1CO2` (stereo not given), the “% Inhibition” value was -9% and the Z score was 1.11. With `C/C=C(\C)CN1CCC2(CCC(=O)N(Cc3cccnc3)C2)CC1` the “% Inhibition” value was -21% and the Z score was 3.88. For `Cn1ncc2c(N[C@@H]3CCC(=O)N[C@H]3C3CCCO3)ncnc21` (stereo not given in full), the “% Inhibition” value was 0% and the Z score was -0.08. In the case of `Cc1cccc(Cl)c1NC(=O)N1CCN2C(=O)NC[C@H]2C1`, the “% Inhibition” value is reported as -11% and the Z score is reported as 0.97. For `O=C1CN(C(=O)[C@@H]2CCCN2c2ccccc2)CCN1`, the “% Inhibition” value was -2% and the Z score was 0.29.
